Hit rate of the full screen: of about 330,000 compounds, about 4,200 (1.3%) were called active. This list was built around the results that the source calls inconclusive (neither active nor inactive); the mix of calls is not that of the screen. Calls come from the whole dose curve; as a rule, active = well fitted activation curve with a large enough effect; inconclusive = small, poorly fitted or top-dose-only effect; inactive = no such curve, though single readings can be large or run the other way. Potencies of inconclusive entries are doubtful fits and often do not repeat.
Assay: qHTS screen for small molecules that induce genotoxicity in human embryonic kidney (HEK293T) cells expressing luciferase-tagged ELG1; note: nearly all actives have a fitted effect of over 60% in size; for activity change, positive = activation: % of control where 0% means no effect
Details: HEK293T ELG1-luciferase reporter, luminescence, 16 h; series mostly up to 46 µM; activity change, positive = activation: at the top concentration
Outline: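 Genotoxic stress is detected as increased luminescence from luciferase-tagged ELG1 in HEK293T cells, measured with ONE-Glo after a 16 hr treatment at 37 °C.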
Potency is the fitted concentration of half-maximal effect; tags give direction and shape of the fitted curve.

Row | Structure (SMILES) | Potency | activity change, positive = activation
1 | Cc1ccc(/C=N/Nc2nc(C(C)(C)C)cs2)o1 | inconclusive: 16.4 µM [activator, partial curve, poor fit] | –
2 | CCCn1nnc(NC(=O)c2ccc(Cl)cc2Cl)n1 | active: 9.2 µM | –
3 | CCc1nnc(NC(=O)CSc2nc3ccc(OC)cc3[nH]2)s1 | – | inactive: 1.6%
4 | CCCCc1ccc(-c2ccc(Br)cc2O)nc1 | active: 1.3 µM | –
5 | Cc1ccc(NC(=O)N/C=C/c2ccco2)cc1C | – | inactive: -0.482%
6 | O=C(/C=C/c1ccc(Cl)cc1)Nc1nccs1 | inconclusive: 0.651 µM [activator, full curve] | –
7 | Cc1cc(C)n2nc(SCC(=O)c3ccccc3)nc2n1 | inconclusive: 18.4 µM [activator, partial curve, poor fit] | –
8 | O=C(CSc1ccccc1C(=O)NCc1ccccc1)NC1CCCCCCC1 | – | inactive: -5.16%
9 | CCOC(=O)c1ccc(Cl)c(NC(=O)c2ccc(-c3ccccc3)cc2)c1 | inconclusive: 20.6 µM [activator, partial curve, poor fit] | –
10 | COC(=O)c1ccc2c(=O)n(Cc3ccco3)c(SCC(=O)Nc3cc(C)on3)nc2c1 | inconclusive: 20.6 µM [activator, partial curve, poor fit] | –
11 | CC(O)CNCCCCOc1ccc(OCc2ccccc2)cc1 (centres undefined) | inconclusive: 20.6 µM [activator, single point] | –
12 | N=c1n(CC(=O)c2cccs2)c2ccccc2n1Cc1ccccc1 | – | inactive: -8.3%
13 | O=C(/C=C/c1ccccc1O)c1ccco1 | inconclusive: 23.1 µM [activator, single point] | –
14 | O=C(CSc1ncn[nH]1)NCc1ccccc1Cl | – | inactive: 0.416%
15 | O=C(Nc1ccc2c(c1)CCC2)c1ccccc1Br | active: 2.31 µM | –
16 | CCOC(=O)c1ccc(-c2cccc(C(F)(F)F)c2)nc1C | inconclusive: 23.1 µM [activator, single point] | –
17 | O=C(CSc1nnc(NC2CC2)s1)c1ccc[nH]1 | inconclusive: 11.6 µM [activator, partial curve] | –
18 | CCC(=O)Nc1ccc(S(=O)(=O)Nc2ccc(Cl)nn2)cc1 | – | inactive: 2.05%
19 | O=C1c2ccccc2S(=O)(=O)N1CC1CC(c2ccccc2Cl)=NO1 (centres undefined) | active: 11.6 µM | –
20 | CCCCSc1cc(=O)[nH]c(N)n1 | – | inactive: -1.99%
21 | C/C(=N\NC(=O)c1cc(O)cc(O)c1)c1ccc(NC(=O)Cc2ccccc2)cc1 | inconclusive: 5.17 µM [activator, single point] | –
22 | CCOC(=O)CC1(NC(=O)C2CCC(=O)N(CCc3ccccc3)C2)CCCCC1 (centres undefined) | – | inactive: 0.761%
23 | CCN(CC)C(=S)SCC(=O)c1ccc(Br)cc1 | inconclusive: 29.1 µM [activator, single point] | –
24 | COc1ccc(C(=O)Nc2nnc(-c3cccs3)s2)cc1 | active: 0.517 µM | –
25 | O=C(CN1C(=O)c2cccc3cccc1c23)Nc1ccccc1 | – | inactive: -1.63%
26 | Cc1ccccc1C(=O)NC1CCN(Cc2nnnn2CCc2ccccc2)CC1 | – | inactive: -2.23%
27 | Cn1cnnc1SCc1nc(N)nc(Nc2ccccc2)n1 | inconclusive: 20.6 µM [activator, partial curve, poor fit] | –

Row | Structure (SMILES) | Potency | activity change, positive = activation
28 | COc1ccc(C(=O)Nc2ccncc2)c(OC)c1 | – | inactive: 4.7%
29 | CCCC(=O)NC(c1ccc(C)cc1)c1ccc2cccnc2c1O (centres undefined) | inconclusive: 4.61 µM [activator, full curve, poor fit] | –
30 | COc1ccc(/C=C/C(=O)OCC(=O)Nc2cc(C(F)(F)F)ccc2Cl)cc1 | – | inactive: 1.21%
31 | CNc1oc(/C=C/c2ccccc2)nc1C#N | inconclusive: 11.6 µM [activator, partial curve] | –
32 | C=CCC[C@H](Cc1ccc(F)cc1)C(=O)OC[C@@H](Cc1c[nH]c2ccccc12)NC(=O)[C@@H](CC=C)CC(=O)N(CCO)Cc1ccccc1 | – | inactive: -6.96%
33 | Cc1ccc(NC(=O)c2noc3c2CCC3)cc1C | inconclusive: 0.517 µM [activator, full curve, poor fit] | –
34 | COc1cccc(/C=C2\C(=O)N(c3cccc(C)c3)C(=O)c3ccccc32)c1 | inconclusive: 20.6 µM [activator, partial curve, poor fit] | –
35 | O=C(NCC1COc2ccccc2O1)c1ccc(Br)s1 (centres undefined) | inconclusive: 13 µM [activator, partial curve, poor fit] | –
36 | Fc1ccc(COc2ccc(-c3nnco3)cc2)cc1 | inconclusive: 23.1 µM [activator, partial curve] | –
37 | Cc1cccc(C(=O)OC(C)CN2CCN(C)CC2)c1 (centres undefined) | inconclusive: 13 µM [activator, partial curve, poor fit] | –
38 | CN1C(=O)c2c(sc3c2CCCC3)NC1c1ccccc1O (centres undefined) | inconclusive: 25.9 µM [activator, single point] | –
39 | O=C(COc1ccccc1)Nc1ccc(-c2ccc(N3CCOCC3)nn2)cc1 | inconclusive: 20.6 µM [activator, partial curve, poor fit] | –
40 | CCOC(=O)Nc1nc(-c2ccccc2)c(C(=O)c2ccc(Cl)cc2)s1 | – | inactive: 17.4%
41 | CC1=C(C(=O)Nc2ccccn2)C(c2cccnc2)n2nnnc2N1 (centres undefined) | – | inactive: 3.46%
42 | CCN(CC)c1ccc(-n2c(C)c(C(C)=O)c(C(C)=O)c2C)cc1 | – | inactive: -33.5%
43 | COC(=O)CC1COc2ccccc2N1S(=O)(=O)c1ccc(OC)cc1 (centres undefined) | – | inactive: -0.959%
44 | CCN(CC)Cc1cc(C(C)=O)ccc1O | – | inactive: 3.57%
45 | COc1ccc(N(CC(=O)Nc2ccc3c(c2)OCCO3)S(C)(=O)=O)c(OC)c1 | inconclusive: 20.6 µM [activator, single point] | –
46 | Cc1cccc(OCCn2nnc3ccccc32)c1C | inconclusive: 13 µM [activator, partial curve] | –
47 | C=CCc1cc(OC)ccc1OCCN1CC(C)OC(C)C1 (centres undefined) | – | inactive: -2.57%
48 | Cc1ccc(/C=N/NC(=O)c2ccco2)cc1 | inconclusive: 5.8 µM [activator, partial curve] | –
49 | CCc1ccc(OCC(=O)O/N=C(\N)c2cccnc2)cc1 | – | inactive: 8.3%
50 | COCCNS(=O)(=O)c1ccc2c3c(cccc13)C(=O)N2C | inconclusive: 16.4 µM [activator, partial curve] | –
51 | CC(=O)COc1ccc2cc(-c3ccccc3)c(=O)oc2c1 | inconclusive: 0.92 µM [activator, partial curve, poor fit] | –
52 | Cc1ccc2nc(-c3ccc(NC(=O)COC(=O)c4ccco4)cc3)sc2c1 | active: 2.91 µM | –
53 | CC(C)(C)C1CCc2c(sc(NC(=O)c3ccco3)c2C(N)=O)C1 (centres undefined) | inconclusive: 11.6 µM [activator, partial curve] | –
54 | CCCc1nc2ccccc2c(=O)n1/N=C/c1ccc(O)cc1O | – | inactive: -9.8%

Row | Structure (SMILES) | Potency | activity change, positive = activation
55 | CCOC(=O)N1CCN(C(=O)CSc2ccc(-c3ccc(OC)c(OC)c3)nn2)CC1 | – | inactive: -13.7%
56 | Cc1cc(N2CCOCC2)nc2ccc(NC(=O)CCC(=O)N3CCN(c4ccccc4F)CC3)cc12 | inconclusive: 3.26 µM [activator, single point] | –
57 | CCCc1ccc(OCc2ccc(C(=O)OC)o2)c(OC)c1 | active: 10.3 µM | –
58 | COc1cc(C)ccc1OCc1cc(C(=O)NC(C)Cn2cncn2)no1 (centres undefined) | inconclusive: 3.66 µM [activator, single point] | –
59 | Cc1cc(NC(=O)c2oc3ccccc3c2C)ccc1-n1cnnn1 | – | inactive: -1.73%
60 | CN(C)CCNc1ncnc2c1cnn2-c1ccc(Cl)cc1 | active: 20.6 µM | –
61 | Cc1cccc(C(=O)O[C@H]2[C@H](C)NS(=O)(=O)[C@H]3CC4C=C[C@]23O4)c1 | – | inactive: 2.54%
62 | O=C1CCOc2cc(OCc3ccccc3)ccc21 | active: 10.3 µM | –
63 | CC1=NN(C(N)=S)C(=O)C1N=Nc1cccc(C)c1 (centres undefined) | inconclusive: 14.6 µM [activator, partial curve, poor fit] | –
64 | O=C(Nc1ccc2c(c1)OCO2)c1ccccc1 | inconclusive: 3.66 µM [activator, partial curve] | –
65 | O=c1c2ccccc2c2ccccc2c(=O)n1-c1ccccc1 | inconclusive: 20.6 µM [activator, partial curve, poor fit] | –
66 | CCCCOC(=O)c1ccc(NC(=O)c2ccoc2C)cc1 | active: 20.6 µM | –
67 | N/C(=N\OC(=O)COc1ccc(Cl)cc1Cl)c1ccccn1 | active: 1.16 µM | –
68 | Cc1ccc(C(=O)CSc2nc3ccccc3o2)cc1 | – | inactive: 20%
69 | NC(=O)NS(=O)(=O)Oc1ccccc1 | – | inactive: 0.111%
70 | CC(=O)c1cccc(NC(=O)N2CCc3ccccc3C2)c1 | inconclusive: 29.1 µM [activator, partial curve, poor fit] | –
71 | CCCCCC(=O)Nc1ccc(-c2csc(N)n2)cc1 | inconclusive: 13 µM [activator, partial curve, poor fit] | –
72 | CC(=O)Nc1ccc2c(c1)C(=O)c1ccccc1C2=O | inconclusive: 7.31 µM [activator, partial curve, poor fit] | –
73 | N#Cc1c(-c2ccc3c(c2)OCO3)csc1N | inconclusive: 11.6 µM [activator, partial curve, poor fit] | –
74 | COc1ccc(C(=O)Nc2cc(C)nn2-c2nc3ccccc3[nH]2)c(OC)c1 | – | inactive: -17.3%
75 | COc1ccc(N(C(=O)c2snc(C(N)=O)c2N)C(C(=O)NC2CCCC2)c2cc(OC)ccc2OC)cc1 (centres undefined) | – | inactive: -2.75%
76 | COc1ccccc1NC(=O)C(=O)NCC1CCCN1S(=O)(=O)c1cccs1 (centres undefined) | inconclusive: 10.3 µM [activator, partial curve] | –
77 | COc1ccc(-c2cc(CC3(C(=O)O)CCN(C(=O)OC(C)(C)C)CC3)on2)c(OC)c1 | – | inactive: 2.58%
78 | COc1ccc(-c2cc(C(=O)NNC(=S)NC(=O)c3c(-c4ccccc4)noc3C)[nH]n2)cc1 | – | inactive: -7.56%
79 | O=C(Nc1ccc(Cl)cc1)N1CCC(c2nc(-c3ccc(F)cc3)no2)CC1 | inconclusive: 23.1 µM [activator, partial curve, poor fit] | –
